One molecule from publication PMC5429092 (2017) can be followed below.

Test [1] addresses T1, biotinylated PP1 (AviTag-FL mPP1G 1–323 with C-terminal LE) (UniProt P63087, biotin on the AviTag). The test can be described thus: BLI; Sephin1. On the technique in general: In BLI a coated tip is dipped into the sample, and binding shifts an interference pattern.
In test [2] the target is T1, biotinylated PP1 (AviTag-FL mPP1G 1–323 …). The test can be described thus: BLI.

T1 sequence (P63087 other isoform, or with tags, fused parts or gaps): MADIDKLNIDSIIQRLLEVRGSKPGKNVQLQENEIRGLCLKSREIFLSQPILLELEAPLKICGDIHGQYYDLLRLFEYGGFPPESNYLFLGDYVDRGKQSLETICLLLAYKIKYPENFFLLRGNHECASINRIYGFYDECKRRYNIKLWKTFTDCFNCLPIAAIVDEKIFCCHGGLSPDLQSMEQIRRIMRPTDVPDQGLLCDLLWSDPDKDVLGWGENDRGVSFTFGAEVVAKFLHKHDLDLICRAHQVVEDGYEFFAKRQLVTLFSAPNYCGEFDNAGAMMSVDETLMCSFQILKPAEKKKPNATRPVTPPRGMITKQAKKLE

B1: human PPP1R15A^[…]-MBP (domain or fragment)
chain: EAECPPCIPPPSAFLKAWVYWPGEDTEEEEDEEEDEDSDSGSDEEEGEAEASSSTPATGVFLKSWVYQPGEDTEEEEDEDSDTGSAEDEREAETSASTPPASAFLKAWVYRPGEDTEEEEDEDVDSEDKEDDSEAALGEAESDPHPSHPDQRAHFRGWGYRPGKETEEEEAAEDWGEAEPCPFRVAIYVPGEKPPPPWAPPRLPLRLQRRLKRPETPTHDPDPETPLK[… about 80 residues …]APIPALTQTLPS
One may read the Kd as a measure of binding affinity in units of concentration. The low end stands for a tighter complex, the high end for a looser complex. As for B1, the dissociation constant (Kd) in test [1] worked out at 0.63 nM; in test [2] it was 0.49 nM.
